By IC50 is meant the dose at which the fit gives 50% viability; where the fit passes the top or lowest dose, that dose stands as a limit. For AUC the same curve is integrated over the 256-fold range of doses and scaled to a fraction; the more sensitive the line, the further below 1. For some of these results: The top dose, if marked as inferred, was calculated from the reported fits. For some of these results: Drugs with an entry number were screened twice under separate entries, and the two screens often disagree.
Tests used:
Assay in all cases: Viability of human cancer cell lines after 72 h of drug (GDSC screen)
Docetaxel = compound: CC(=O)O[C@@]12CO[C@@H]1C[C@H](O)[C@@]1(C)C(=O)[C@H](O)C3=C(C)[C@@H](OC(=O)[C@H](O)[C@@H](NC(=O)OC(C)(C)C)c4ccccc4)C[C@@](O)([C@@H](OC(=O)c4ccccc4)[C@H]21)C3(C)C [Docetaxel]; details: top dose 0.0125 µM
Experimental: (§1)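 Human cancer cell lines in 384-well plates, medium with 10% serum, drug for 72 h over a 256-fold dose range (nine 2-fold or five 4-fold steps up to the top dose). Adherent lines were fixed and stained with the nucleic acid dye Syto60, suspension lines read with resazurin; signal relative to control wells, capped at 0 and 100%. One two-parameter sigmoid per drug and line, fitted in a mixed model over all curves with the slope shared within a line.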

JNK Inhibitor VIII = compound: CCOc1nc(NC(=O)Cc2cc(OC)ccc2OC)cc(N)c1C#N [JNK Inhibitor VIII]; details: top dose 10 µM; top dose inferred
Experimental: as §1

Belinostat = compound: O=C(/C=C/c1cccc(S(=O)(=O)Nc2ccccc2)c1)NO [Belinostat]; details: top dose 20 µM; top dose inferred
Experimental: as §1

OSI-906 = compound: C[C@]1(O)C[C@@H](c2nc(-c3ccc4ccc(-c5ccccc5)nc4c3)c3c(N)nccn32)C1 [OSI-906]; details: top dose 2.56 µM; top dose inferred
Experimental: as §1

AMG-706 = compound: CC1(C)CNc2cc(NC(=O)c3cccnc3NCc3ccncc3)ccc21 [AMG-706]; details: top dose 2 µM; top dose inferred
Experimental: as §1

Cyclopamine = compound: CC1=C2C[C@H]3[C@@H](CC=C4C[C@@H](O)CC[C@@]43C)[C@@H]2CC[C@]12O[C@@H]1C[C@H](C)CN[C@H]1[C@H]2C [Cyclopamine]; details: top dose 16 µM; top dose inferred
Experimental: as §1

FTI-277 = compound: COC(=O)[C@H](CCSC)NC(=O)c1ccc(NC[C@@H](N)CS)cc1-c1ccccc1 [FTI-277]; details: top dose 1.024 µM; top dose inferred
Experimental: as §1

JNJ-26854165 = compound: c1ccc2c(CCNc3ccc(Nc4ccncc4)cc3)c[nH]c2c1 [JNJ-26854165]; details: top dose 10 µM
Experimental: as §1

YM155 = compound: COCC[n+]1c2c(n(Cc3cnccn3)c1C)C(=O)c1ccccc1C2=O [YM155]; details: top dose 5.12 µM
Experimental: as §1

JQ1 = compound: Cc1sc2c(c1C)C(c1ccc(Cl)cc1)=N[C@@H](CC(=O)OC(C)(C)C)c1nnc(C)n1-2 [JQ1]
Experimental: as §1

SB-715992 = compound: Cc1ccc(C(=O)N(CCCN)[C@@H](c2nc3cc(Cl)ccc3c(=O)n2Cc2ccccc2)C(C)C)cc1 [SB-715992]; details: top dose 0.128 µM; top dose inferred
Experimental: as §1

CGP-60474 = compound: OCCCNc1cc(-c2ccnc(Nc3cccc(Cl)c3)n2)ccn1 [CGP-60474]; details: top dose 0.256 µM; top dose inferred
Experimental: as §1

NSC-207895 = compound: CN1CCN(c2ccc([N+](=O)[O-])c3no[n+]([O-])c23)CC1 [NSC-207895]; details: top dose 20 µM; top dose inferred
Experimental: as §1

[1] = top dose 1 µM, screen: GDSC drug entry 1218, top dose inferred
[2] = top dose 2.56 µM, screen: GDSC drug entry 163

Q: With U-698-M (B-cell leukaemia, suspension) as the cell line, how does the AUC (Docetaxel) read?
A: 0.819

Q: And the IC50 (Docetaxel)?
A: 0.00714 µM

Q: What about the AUC (JNK Inhibitor VIII) of the same cell line?
A: 0.987

Q: What about the IC50 (JNK Inhibitor VIII) of the same cell line?
A: > 10 µM

Q: And the AUC (Belinostat)?
A: 0.546

Q: And the IC50 (Belinostat)?
A: 1.66 µM

Q: What about the AUC (OSI-906) of the same cell line?
A: 0.965

Q: What about the IC50 (OSI-906) of the same cell line?
A: > 2.56 µM

Q: And the AUC (AMG-706)?
A: 0.985

Q: And the IC50 (AMG-706)?
A: > 2 µM

Q: And the AUC (Cyclopamine)?
A: 0.96

Q: And the IC50 (Cyclopamine)?
A: > 16 µM

Q: And the AUC (FTI-277)?
A: 0.983

Q: And the IC50 (FTI-277)?
A: > 1.02 µM

Q: What about the AUC (JNJ-26854165) of the same cell line?
A: 0.87

Q: What about the IC50 (JNJ-26854165) of the same cell line?
A: 9.33 µM

Q: And the AUC (YM155)?
A: 0.104

Q: And the IC50 (YM155)?
A: < 0.02 µM

Q: What about the AUC (JQ1; [1]) of the same cell line?
A: 0.982

Q: What about the IC50 (JQ1; [1]) of the same cell line?
A: > 1 µM

Q: What about the AUC (JQ1; [2]) of the same cell line?
A: 0.942

Q: And the IC50 (JQ1; [2])?
A: > 2.56 µM

Q: And the AUC (SB-715992)?
A: 0.944

Q: And the IC50 (SB-715992)?
A: > 0.128 µM

Q: What about the AUC (CGP-60474) of the same cell line?
A: 0.933

Q: What about the IC50 (CGP-60474) of the same cell line?
A: > 0.256 µM

Q: What about the AUC (NSC-207895) of the same cell line?
A: 0.985

Q: And the IC50 (NSC-207895)?
A: > 20 µM

Q: What does the source list for “NCI-H1417 (small cell lung carcinoma, suspension)”?
A: AUC (Docetaxel): 0.866; IC50 (Docetaxel): > 0.0125 µM; AUC (JNK Inhibitor VIII): 0.977; IC50 (JNK Inhibitor VIII): > 10 µM; AUC (Belinostat): 0.236; IC50 (Belinostat): 0.182 µM; AUC (OSI-906): 0.895; IC50 (OSI-906): > 2.56 µM; AUC (AMG-706): 0.98; IC50 (AMG-706): > 2 µM; AUC (Cyclopamine): 0.981; IC50 (Cyclopamine): > 16 µM; AUC (FTI-277): 0.971; IC50 (FTI-277): > 1.02 µM; AUC (JNJ-26854165): 0.61; IC50 (JNJ-26854165): 1.33 µM; AUC (YM155): 0.046; IC50 (YM155): < 0.02 µM; AUC (JQ1; [1]): 0.71; IC50 (JQ1; [1]): 0.278 µM; AUC (JQ1; [2]): 0.879; IC50 (JQ1; [2]): > 2.56 µM; AUC (SB-715992): 0.845; IC50 (SB-715992): 0.12 µM; AUC (CGP-60474): 0.877; IC50 (CGP-60474): > 0.256 µM; AUC (NSC-207895): 0.805; IC50 (NSC-207895): 12.5 µM

Q: For EJM (lymphoid neoplasm, semi-adherent), which AUC (Docetaxel) is on record?
A: 0.879

Q: And the IC50 (Docetaxel)?
A: 0.00939 µM

Q: And the AUC (JNK Inhibitor VIII)?
A: 0.992

Q: What about the IC50 (JNK Inhibitor VIII) of the same cell line?
A: > 10 µM

Q: What about the AUC (Belinostat) of the same cell line?
A: 0.309

Q: What about the IC50 (Belinostat) of the same cell line?
A: 0.403 µM

Q: And the AUC (OSI-906)?
A: 0.954

Q: And the IC50 (OSI-906)?
A: > 2.56 µM

Q: What about the AUC (AMG-706) of the same cell line?
A: 0.992

Q: What about the IC50 (AMG-706) of the same cell line?
A: > 2 µM

Q: What about the AUC (Cyclopamine) of the same cell line?
A: 0.989

Q: And the IC50 (Cyclopamine)?
A: > 16 µM

Q: What about the AUC (FTI-277) of the same cell line?
A: 0.992

Q: What about the IC50 (FTI-277) of the same cell line?
A: > 1.02 µM

Q: What about the AUC (JNJ-26854165) of the same cell line?
A: 0.95

Q: And the IC50 (JNJ-26854165)?
A: > 10 µM

Q: What about the AUC (YM155) of the same cell line?
A: 0.033

Q: What about the IC50 (YM155) of the same cell line?
A: < 0.02 µM

Q: And the AUC (JQ1; [1])?
A: 0.991

Q: What about the IC50 (JQ1; [1]) of the same cell line?
A: > 1 µM

Q: What about the AUC (JQ1; [2]) of the same cell line?
A: 0.927

Q: And the IC50 (JQ1; [2])?
A: > 2.56 µM

Q: What about the AUC (SB-715992) of the same cell line?
A: 0.814

Q: What about the IC50 (SB-715992) of the same cell line?
A: 0.0562 µM

Q: What about the AUC (CGP-60474) of the same cell line?
A: 0.768

Q: What about the IC50 (CGP-60474) of the same cell line?
A: 0.0815 µM

Q: What about the AUC (NSC-207895) of the same cell line?
A: 0.918

Q: What about the IC50 (NSC-207895) of the same cell line?
A: > 20 µM

Q: With RF-48 (stomach, adherent) as the cell line, how does the AUC (Docetaxel) read?
A: 0.973

Q: What about the IC50 (Docetaxel) of the same cell line?
A: > 0.0125 µM

Q: What about the AUC (JNK Inhibitor VIII) of the same cell line?
A: 0.985

Q: And the IC50 (JNK Inhibitor VIII)?
A: > 10 µM

Q: What about the AUC (Belinostat) of the same cell line?
A: 0.188

Q: And the IC50 (Belinostat)?
A: 0.126 µM

Q: What about the AUC (OSI-906) of the same cell line?
A: 0.953

Q: What about the IC50 (OSI-906) of the same cell line?
A: > 2.56 µM

Q: What about the AUC (AMG-706) of the same cell line?
A: 0.984

Q: What about the IC50 (AMG-706) of the same cell line?
A: > 2 µM

Q: And the AUC (Cyclopamine)?
A: 0.977

Q: What about the IC50 (Cyclopamine) of the same cell line?
A: > 16 µM

Q: What about the AUC (FTI-277) of the same cell line?
A: 0.946

Q: What about the IC50 (FTI-277) of the same cell line?
A: > 1.02 µM

Q: What about the AUC (JNJ-26854165) of the same cell line?
A: 0.946

Q: What about the IC50 (JNJ-26854165) of the same cell line?
A: > 10 µM

Q: What about the AUC (YM155) of the same cell line?
A: 0.036

Q: What about the IC50 (YM155) of the same cell line?
A: < 0.02 µM

Q: What about the AUC (JQ1; [1]) of the same cell line?
A: 0.894

Q: What about the IC50 (JQ1; [1]) of the same cell line?
A: > 1 µM

Q: And the AUC (JQ1; [2])?
A: 0.715

Q: What about the IC50 (JQ1; [2]) of the same cell line?
A: 0.704 µM

Q: What about the AUC (SB-715992) of the same cell line?
A: 0.657

Q: And the IC50 (SB-715992)?
A: 0.023 µM

Q: And the AUC (CGP-60474)?
A: 0.607

Q: What about the IC50 (CGP-60474) of the same cell line?
A: 0.0328 µM

Q: What about the AUC (NSC-207895) of the same cell line?
A: 0.503

Q: What about the IC50 (NSC-207895) of the same cell line?
A: 1.28 µM
